Source: ChEMBL document CHEMBL4888484, “Replenishing the malaria drug discovery pipeline: Screening and hit evaluation of the MMV Hit Generation Library 1 (HGL1) against asexual blood stage Plasmodium falciparum ,using a nano luciferase reporter read-out” (2022)
In all, about 4,800 compounds went through this assay and about 420 (8.8%) showed an effect of 50% or more. This is one part of the list.

Tested on: Plasmodium falciparum
Assay: Confirmatory screen in NF54 nanoGlo assay, in single point, at 2uM, 72h
Assay type: functional, Erythrocyte
Conditions: timepoint 72 hour

Structure (SMILES) | % Inhibition [%]
C#CCn1ccc(O)c(Cc2ccccc2)c1=O | 10
CC1CCN(c2nc3c(c(Oc4cccc(F)c4)n2)CN(Cc2ccccn2)CC3)CC1 | 14
CCC(=O)O[C@@]1(c2ccc(C3CC3)cc2)CCCN(Cc2ccccc2)C1 | 3
N#Cc1cnn2ccc(-c3ccc4c(c3)CCC4)nc12 | -10
Cn1cnnc1NC(=O)[C@@H]1CC=CCC1 | -7
O=C1CCC(C(=O)N2CCC[C@H]2c2ccncc2)=NN1c1ccccc1 | -10
Cc1ccc(-c2csc(N3C(=O)CC4CS(=O)(=O)CC43)n2)cc1C (centres undefined) | 3
C[C@@H](c1cccs1)N(C)C(=O)CN1C(=O)COc2ccccc21 | -2
CCC1=C(c2ccc(C)cc2)S(=O)(=O)N=C1N1CCC(C(=O)NCCN2CCCC[C@@H]2C)CC1 | 44
CCc1nc2cc(N3CCC(C(=O)Nc4ccc5c(c4)OCO5)CC3)cnc2nc1CC | 61
NC(=O)CN1CC2(CCCCC2)N(Cc2c(F)cccc2Cl)CC1=O | -15
Cc1cc(N2CCO[C@@H](Cn3cccn3)C2)c2ccc(F)c(F)c2n1 | 3
O=C(N[C@H](c1ccccc1)C1CC1)N1CCN(S(=O)(=O)c2cccc(F)c2)CC1 | 4
CC1(C)CCC(Nc2ccc(C(N)=O)nn2)CC1 | 70
NC1CC(NCCc2cccc3cccnc23)c2ccccc21 (centres undefined) | 43
Cn1cc(C(=O)N2N=CC[C@]2(O)C(F)(F)F)cn1 | 1
CCOC(=O)N1CCN(C(=O)c2cnn3c(-c4ccc(C(C)C)cc4)ccnc23)CC1 | -6
Brc1ccc(NCc2[nH]nnc2-c2ccccc2)cc1 | 2
Cc1cccc(N2CCN(C(=O)CCC3=Nc4cc(C(F)(F)F)ccc4S(=O)(=O)N3)CC2)c1C | 2
COc1cccc(NC(=O)CN2CN(c3ccccc3)C3(CCN(C(=O)C[C@@H](C)CC(C)(C)C)CC3)C2=O)c1 | 10
COCC1(C(=O)N2CCN(c3cncc4ccccc34)CC2)CCC1 | 4
C=CCOc1ccc(Cl)c(C(=O)N[C@H]2CCS(=O)(=O)C2)n1 | 0

Structure (SMILES) | % Inhibition [%]
O=C(C1CCCC1)N1CCN(S(=O)(=O)c2ccccc2)CC1 | -5
O=C(O)c1cc(C=Cc2ccc3ncccc3c2)ncn1 | 3
CC(NC(Cc1ccccc1)C(=O)N1CCCCC1)c1ccncc1 (centres undefined) | -15
O=C(Nc1ccsc1C(=O)NCc1cc(F)cc(F)c1)c1cnccn1 | 0
Cc1cc2nnc(-c3nc4ccccc4[nH]3)c(N)n2n1 | -10
O=C(NCC(N1CCOCC1)C(F)(F)F)C1CC12CCOC2 (centres undefined) | 1
CCC(=O)Nc1nc2ccc(NS(=O)(=O)c3cccc4nsnc34)cc2s1 | -6
Cc1cncn1C1CCN(C(=O)C2(Cc3ccccc3)CC3CCC2C3)CC1 (centres undefined) | -3
CO[C@H]1c2ccccc2C(=O)N1C1CCCCCCCCCCC1 | 4
COc1ccc(N2CCN(c3nccn4nc(-c5cccs5)cc34)CC2)cc1 | 6
COc1cc(N2CCn3c(nc4cc(Cl)ccc43)C2)ccc1NC(=O)C1CCCCC1 | -3
CCOC(=O)c1ncn(C2CCN(C(=O)c3cccc(Cn4ccnc4)c3)CC2)c1N | -3
O=C(NC1CCOCC1)c1ccc(-c2ccc(F)c(F)c2F)cn1 | 6
O=C(c1ccccc1F)N(Cc1nccn1Cc1c(F)cccc1Cl)C1CC1 | 36
Cc1nn(C)c(NC(=O)CCc2c[nH]cn2)c1C | -9
CCC(C)(C)C(=O)N1CCC[C@@H]1CCc1ncc(C)n1C(C)C | 4
CC1(C)Cc2cc(S(=O)(=O)N[C@H]3CCC(=O)NC3(C)C)ccc2O1 | -11
CCCOc1cc2nc(C(F)(F)F)cc(-c3cccs3)c2cc1OCCC | -4
Cc1nc2ccccc2n1CCC(=O)N1CCN(Cc2ccc3c(c2)OCO3)CC1 | 2
O=C1CN(C(=O)C2CC2c2ccccc2C(F)(F)F)CCN1 (centres undefined) | -12
CCn1cc(S(=O)(=O)N(C)Cc2nn(CC)cc2Cl)cn1 | 2
N#Cc1ccc(CNc2ccccc2OCC(F)F)o1 | -10

Structure (SMILES) | % Inhibition [%]
N#Cc1c(CN(CCn2cccn2)Cc2cn3ccccc3c2C#N)cn2ccccc12 | -15
Cc1ccc(C)c(C(=O)N2C[C@@H]3CN(C(=O)C4CCC4)C[C@]3(C(=O)O)C2)c1 | -6
O=C(CNc1cccc(C(F)(F)F)c1)OCC(=O)N1CCNC1=O | 4
O=C(CCc1ccc(Cl)c(C(F)(F)F)c1)N1CC[C@H](N2CCc3ccccc3C2)C1 | 52
COc1cccc(NC(=O)Cn2c(C)ccc(NS(=O)(=O)c3ccc(C)cc3)c2=O)c1 | 63
CC(C)NC(=O)[C@H](C)N(C)Cc1nccn1CC(F)(F)F | -1
Cc1sc(NC(N)=O)nc1Cc1ccccc1 | -3
O=C(NCCCc1ccccc1)[C@H]1CCCN(c2nc3ccccc3[nH]2)C1 | -6
CC(C)(CC(=O)O)CC(=O)Nc1ccc(Cc2nnc3ccccn23)cc1 | -4
Cc1ccc(S(=O)(=O)NCC2(CNS(=O)(=O)c3ccc(C)cc3)CN(S(=O)(=O)c3ccc(C)cc3)C2)cc1 | 7
CCn1c(=O)c(N2CCC(C(=O)N3CCN(c4ccccc4F)CC3)CC2)nc2cccnc21 | -12
Cc1c2c(C(F)(F)F)cc(=O)n(CCC(=O)Nc3ncc(Cl)cc3Cl)c2nn1C | -11
COc1cc(Br)ccc1N | 1
Cc1cc(C)c2c(c1)[C@@H](C)CC(C)(C)N2C(=O)c1sc2ccccc2c1Cl | 0
C[C@@H](C(=O)NCCN1CCCCC1)N1C(=O)COc2ccc(C(=O)COc3ccccc3Cl)cc21 | -5
O=S(=O)(NC1CCCCC1)c1ccc(Cl)c(S(=O)(=O)NC2CCCCC2)c1 | 0
Cc1ccc(N2C(=O)c3ccccc3[C@H]2Nc2nc(C)cs2)nc1 | -18
Cc1c(NC(=O)N2CCC(C)C(n3ccnc3)C2)cccc1N(C)C (centres undefined) | -1
CC(C)Cc1nsc(NCc2ccc(O)cc2O)n1 | -1
COc1ccc(C(C)=O)c(O[C@@H](C)C(=O)NCC(F)(F)F)c1 | -13
